{"source": "PubChem BioAssay (NCATS)", "key": {"MKL-1": {"system": "MKL-1", "assay": "qHTS assay to identify novel small-molecules to repurpose for Merkel cell carcinoma treatment (AID 1296009); further: nearly all actives have a fitted effect of over 60% in size", "conditions": "MCC and control cell lines, CellTiter-Glo viability, 72 h; activity change, negative = cytotoxicity: at 46 µM (top of the series)", "method_in_brief": "(§1)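 Luminescence from CellTiter-Glo, read 10 min after addition at room temperature, reported viability following a 72 hr, 37 degree celsius treatment with NPC or MIPE compounds in titration; values normalized to plate controls.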"}, "WaGa": {"system": "WaGa", "assay": "qHTS assay to identify novel small-molecules to repurpose for Merkel cell carcinoma treatment (AID 1296009)", "conditions": "MCC and control cell lines, CellTiter-Glo viability, 72 h; series mostly up to 46 µM", "method_in_brief": "as §1"}, "HeLa": {"system": "HeLa", "assay": "Primary qHTS to identify gynecologic anti-cancer compounds using libraries of approved drugs and bioactive compounds (AID 1345084)", "conditions": "Gynecologic cancer cell panel viability, ATPlite luminescence, 48 h; series mostly up to 57.5 µM", "method_in_brief": "(§2)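 Cells, 1,000 per well, were allowed to settle for 16 h at 37 C before compound addition. Five concentrations were tested for 48 h, and viability was read by ATPlite luminescence after 15 min at room temperature.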"}, "CAOV3": {"system": "CAOV3", "assay": "Primary qHTS to identify gynecologic anti-cancer compounds using libraries of approved drugs and bioactive compounds (AID 1345084)", "conditions": "Gynecologic cancer cell panel viability, ATPlite luminescence, 48 h; series mostly up to 57.5 µM", "method_in_brief": "as §2"}, "MKL-2": {"system": "MKL-2", "assay": "qHTS assay to identify novel small-molecules to repurpose for Merkel cell carcinoma treatment (AID 1296009)", "conditions": "MCC and control cell lines, CellTiter-Glo viability, 72 h; activity change, negative = cytotoxicity: at 46 µM (top of the series)", "method_in_brief": "as §1"}, "UISO": {"system": "UISO", "assay": "qHTS assay to identify novel small-molecules to repurpose for Merkel cell carcinoma treatment (AID 1296009)", "conditions": "MCC and control cell lines, CellTiter-Glo viability, 72 h; series mostly up to 46 µM", "method_in_brief": "as §1"}, "CASKI": {"system": "CASKI", "assay": "Primary qHTS to identify gynecologic anti-cancer compounds using libraries of approved drugs and bioactive compounds (AID 1345084)", "conditions": "Gynecologic cancer cell panel viability, ATPlite luminescence, 48 h; series mostly up to 57.5 µM", "method_in_brief": "as §2"}, "Es-2": {"system": "Es-2", "assay": "Primary qHTS to identify gynecologic anti-cancer compounds using libraries of approved drugs and bioactive compounds (AID 1345084)", "conditions": "Gynecologic cancer cell panel viability, ATPlite luminescence, 48 h; series mostly up to 57.5 µM", "method_in_brief": "as §2"}}, "note": "Inconclusive results, whose numbers are uncertain, are shown with a selection of clear calls. Potencies beside an inconclusive call are fits to weak or partial responses and may not hold up. Active and inactive are the calls of the source. The call rests on the fitted dose curve; in most records, active means well fitted curve in the direction sought with a large enough effect; inconclusive means small, poorly fitted or top-dose-only effect, or another doubt; inactive means no such curve, though single readings can be large; an effect the other way counts as inactive or inconclusive. Potency means the concentration at half of the fitted maximal effect; tags describe the fitted curve by direction and shape.", "data": [{"smiles": "CC(C)(C#N)c1cc(Cn2cncn2)cc(C(C)(C)C#N)c1", "values": [{"measurement": "Potency", "setting": "MKL-1", "value": "inactive"}, {"measurement": "Potency", "setting": "WaGa", "value": "inactive"}, {"measurement": "Potency", "setting": "HeLa", "value": "inactive"}]}, {"smiles": "CC(C)(C)NC(=O)Nc1cccc(Nc2ncc(F)c(NC(C)(C)CO)n2)c1", "values": [{"measurement": "Potency", "setting": "MKL-1", "value": "inconclusive: 11.8 µM [inhibitor, partial curve]"}, {"measurement": "Potency", "setting": "WaGa", "value": "inconclusive: 23.5 µM [inhibitor, single point]"}, {"measurement": "Potency", "setting": "CAOV3", "value": "inconclusive: 20 µM [cytotoxic, single point]"}, {"measurement": "Potency", "setting": "HeLa", "value": "inconclusive: 14.1 µM [cytotoxic, partial curve]"}]}, {"smiles": "CCCCCCCCCCCCCCCC(=O)OC[C@@H](NC(=O)C(Cl)Cl)[C@H](O)c1ccc([N+](=O)[O-])cc1", "values": [{"measurement": "Potency", "setting": "MKL-2", "value": "inactive"}]}, {"smiles": "COc1cc(C)c(C=CC(C)=CC=CC(C)=CC(=O)O)c(C)c1C", "values": [{"measurement": "Potency", "setting": "MKL-2", "value": "inconclusive: 0.296 µM [inhibitor, full curve]"}]}, {"smiles": "CC1(C)CCC[C@@]2(C)[C@@H]1CC[C@@]1(C)OC(=O)C[C@H]21", "values": [{"measurement": "Potency", "setting": "MKL-2", "value": "inactive"}]}, {"smiles": "CC(=O)OCC(CCn1cnc2cnc(N)nc21)COC(C)=O", "values": [{"measurement": "Potency", "setting": "MKL-1", "value": "inactive"}, {"measurement": "Potency", "setting": "UISO", "value": "inactive"}, {"measurement": "Potency", "setting": "CAOV3", "value": "inconclusive: 0.447 µM [rising, partial curve, poor fit]"}]}, {"smiles": "Cc1ccc(O)c(C(CCN(C(C)C)C(C)C)c2ccccc2)c1", "note": "(stereo unspecified)", "values": [{"measurement": "Potency", "setting": "MKL-2", "value": "inactive"}]}, {"smiles": "COC1CCC(N(C(=O)C2CCC(C)CC2)c2cc(C3=CCCCC3)sc2C(=O)O)CC1", "note": "(stereo unspecified)", "values": [{"measurement": "Potency", "setting": "MKL-2", "value": "inactive"}]}, {"smiles": "Clc1ccccc1C(c1ccccc1)(c1ccccc1)n1ccnc1", "values": [{"measurement": "Potency", "setting": "MKL-2", "value": "inconclusive: 33.5 µM [inhibitor, single point]"}]}, {"smiles": "CO[C@H]1/C=C\\O[C@@]2(C)Oc3c(C)c(O)c4c(O)c(c5c(nc6cc(C)ccn65)c4c3C2=O)NC(=O)C(C)=CC=C[C@H](C)[C@H](O)[C@@H](C)[C@@H](O)[C@@H](C)[C@H](OC(C)=O)[C@H]1C", "values": [{"measurement": "Potency", "setting": "MKL-1", "value": "inconclusive: 23.5 µM [inhibitor, single point]"}, {"measurement": "Potency", "setting": "WaGa", "value": "inconclusive: 18.7 µM [inhibitor, partial curve, poor fit]"}]}, {"smiles": "CCCCCCCCCCCC1=C(O)C(=O)C=C(O)C1=O", "values": [{"measurement": "Potency", "setting": "MKL-2", "value": "inconclusive: 0.0526 µM [inhibitor, full curve, poor fit]"}]}, {"smiles": "Nc1ncnc2nc(-c3ccc(N4CCOCC4)nc3)cc(-c3cccc(Br)c3)c12", "values": [{"measurement": "Potency", "setting": "MKL-1", "value": "inactive"}, {"measurement": "Potency", "setting": "UISO", "value": "inactive"}]}, {"smiles": "CCOC(CN1C(=O)[C@](CC(=O)Nc2ccc(C)cc2)(NC(=O)Nc2ccc(C)cc2)c2ccccc21)OCC", "values": [{"measurement": "Potency", "setting": "MKL-2", "value": "inconclusive: 33.2 µM [inhibitor, single point]"}]}, {"smiles": "CCCCCCCCCCCC(CC1OC(=O)C1CCCCCC)OC(=O)C(CC(C)C)NC=O", "note": "(stereo unspecified)", "values": [{"measurement": "Potency", "setting": "MKL-2", "value": "inconclusive: 13.2 µM [inhibitor, partial curve]"}]}, {"smiles": "O=C(NCc1ccncc1)C12C[C@H]3C[C@@H](C1)CC(c1ccc(Cl)cc1)(C3)C2", "values": [{"measurement": "Potency", "setting": "MKL-1", "value": "inconclusive: 16.6 µM [inhibitor, partial curve]"}, {"measurement": "Potency", "setting": "WaGa", "value": "inconclusive: 16.6 µM [inhibitor, partial curve]"}]}, {"smiles": "CCCCC[C@H](O)C=C[C@H]1[C@H](O)CC(=O)[C@H]1CC=CCCCC(=O)O", "values": [{"measurement": "Potency", "setting": "MKL-1", "value": "inconclusive: 21.1 µM [inhibitor, single point]"}, {"measurement": "Potency", "setting": "UISO", "value": "inconclusive: 33.5 µM [inhibitor, single point]"}, {"measurement": "Potency", "setting": "WaGa", "value": "inconclusive: 26.4 µM [inhibitor, single point]"}]}, {"smiles": "O=C(Nc1cccnc1)N1CCC(Cc2cccc(Oc3ccc(C(F)(F)F)cn3)c2)CC1", "values": [{"measurement": "Potency", "setting": "MKL-1", "value": "inconclusive: 23.5 µM [inhibitor, partial curve]"}, {"measurement": "Potency", "setting": "CASKI", "value": "inconclusive: 25.1 µM [cytotoxic, single point]"}, {"measurement": "Potency", "setting": "Es-2", "value": "inconclusive: 28.2 µM [cytotoxic, single point]"}]}, {"smiles": "CN(C)C(=N)N=C(N)N", "values": [{"measurement": "Potency", "setting": "MKL-2", "value": "inactive"}]}, {"smiles": "CN[C@@H](C)C(=O)N[C@H]1CN(C(=O)CC(C)C)CC[C@H]2CC[C@@H](C(=O)NC(c3ccccc3)c3ccccc3)N2C1=O", "values": [{"measurement": "Potency", "setting": "MKL-1", "value": "inconclusive: 33.2 µM [inhibitor, single point]"}, {"measurement": "Potency", "setting": "UISO", "value": "inconclusive: 23.5 µM [inhibitor, single point]"}, {"measurement": "Potency", "setting": "WaGa", "value": "inconclusive: 33.2 µM [inhibitor, single point]"}, {"measurement": "Potency", "setting": "CAOV3", "value": "inconclusive: 39.8 µM [cytotoxic, single point]"}, {"measurement": "Potency", "setting": "CASKI", "value": "inconclusive: 39.8 µM [cytotoxic, single point]"}, {"measurement": "Potency", "setting": "HeLa", "value": "inconclusive: 25.1 µM [cytotoxic, partial curve, poor fit]"}]}, {"smiles": "Cc1cnc(C(=O)NCCc2ccc(S(=O)(=O)NC(=O)NC3CCCCC3)cc2)cn1", "values": [{"measurement": "Potency", "setting": "MKL-2", "value": "inactive"}]}, {"smiles": "CC(C)(C)c1nc(-c2cccc(NS(=O)(=O)c3c(F)cccc3F)c2F)c(-c2ccnc(N)n2)s1", "values": [{"measurement": "Potency", "setting": "MKL-1", "value": "inactive"}, {"measurement": "Potency", "setting": "Es-2", "value": "inconclusive: 1.41 µM [cytotoxic, full curve]"}]}]}
